Laboratory results taken from the supplement of paper PMC4604168 (melanoma cell lines).
Some of the results follow. Many values rest on one well or one pass, so single values are uncertain.

What was measured:
Experiment in all cases: cell count relative to DMSO control; melanoma cells; higher = more viable cells
Settings in all cases: library dose: low library concentration; 72 h
COLO792 = test system: COLO792
COLO800 = test system: COLO800
COLO829 = test system: COLO829
G361 = test system: G361
IPC-298 = test system: IPC-298
IST-MEL1 = test system: IST-MEL1
LB2518-MEL = test system: LB2518-MEL
LOXIMVI = test system: LOXIMVI
MEL-HO = test system: MEL-HO
MZ2-MEL = test system: MZ2-MEL
MeWo = test system: MeWo
RPMI7951 = test system: RPMI7951
RVH-421 = test system: RVH-421
SkMel28 = test system: SkMel28
SkMel30 = test system: SkMel30
SkMel5 = test system: SkMel5
UACC257 = test system: UACC257
UACC62 = test system: UACC62
WM115 = test system: WM115
WM1716 = test system: WM1716
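Note: cell number obtained by counting DAPI-stained nuclei in high-throughput microscope images with image analysis software, screen run in 1,536-well plates.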

Row | Compound | cell count (COLO792) | cell count (COLO800) | cell count (COLO829) | cell count (G361) | cell count (IPC-298) | cell count (IST-MEL1) | cell count (LB2518-MEL) | cell count (LOXIMVI) | cell count (MEL-HO) | cell count (MZ2-MEL) | cell count (MeWo) | cell count (RPMI7951) | cell count (RVH-421) | cell count (SkMel28) | cell count (SkMel30) | cell count (SkMel5) | cell count (UACC257) | cell count (UACC62) | cell count (WM115) | cell count (WM1716)
1 | COc1ccc(-c2ccc3c(N4CCOCC4)nc(N4C[C@@H](C)O[C@@H](C)C4)nc3n2)cc1CO + CCCCCCCCCCCC1=C(O)C(=O)C=C(O)C1=O [Embelin] (first compound 0.02 µM, partner dose 1.2 µM) | 81.9% | 95.2% | 107% | 86.1% | 88.7% | 102% | 104% | 96.8% | 89.5% | 92.7% | 96% | 82.7% | 91.4% | 85.1% | 98% | 94.9% | 93.5% | 88.9% | 80.8% | 103%
2 | COc1ccc(-c2ccc3c(N4CCOCC4)nc(N4C[C@@H](C)O[C@@H](C)C4)nc3n2)cc1CO + CC(C)CCN1c2nc(Nc3cc(F)c(O)c(F)c3)ncc2N(C)C(=O)C1C [BID1870] (first compound 0.02 µM, partner dose 0.2 µM) | 95.1% | 73.2% | 81.7% | 90.1% | 91.4% | 105% | 96.7% | 180% | 87.2% | 98.6% | 85% | 124% | 88.6% | 94.9% | 90.2% | 86% | 91.9% | 67.8% | 89.9% | 83.9%
3 | Oc1cc(-c2nc(-c3ccccc3)[nH]c2-c2ccncc2)ccc1Cl + c1cc(-c2cnn3cc(-c4ccc(OCCN5CCCCC5)cc4)cnc23)ccn1 [Dorsomorphin] (first compound 0.2 µM, partner dose 0.4 µM) | 96.3% | 81% | 101% | 86.4% | 84.4% | 98% | 87.2% | 131% | 84.2% | 84.4% | 92.2% | 100% | 81.8% | 76.6% | 89.6% | 80.4% | 68.4% | 53.9% | 58.7% | 107%
4 | COc1ccc2c(c1)CCC1C2CCC2(C)C(NCCCCCCN3C(=O)C=CC3=O)CCC12 (stereo not given) + c1cc(-c2cnn3cc(-c4ccc(OCCN5CCCCC5)cc4)cnc23)ccn1 [Dorsomorphin] (first compound 0.4 µM, partner dose 0.4 µM) | 93.5% | 58.5% | 104% | 97% | 99.3% | 97.4% | 111% | 78.7% | 100% | 97.3% | 96.4% | 75.2% | 99.9% | 86.5% | 95% | 88.4% | 86.3% | 114% | 94.2% | 91.8%
5 | O=C1NC(=O)/C(=C/c2ccc(-c3ccc(F)cc3O)o2)S1 + c1cc(-c2cnn3cc(-c4ccc(OCCN5CCCCC5)cc4)cnc23)ccn1 [Dorsomorphin] (first compound 1 µM, partner dose 0.4 µM) | 95.8% | 136% | 118% | 112% | 95.7% | 107% | 96.8% | 102% | 106% | 101% | 97.6% | 109% | 474% | 112% | 101% | 93.6% | 90.7% | 92.4% | 108% | 103%
6 | Oc1nc(-c2ccc(C(F)(F)F)cc2)nc2c1CSCC2 + CCCCCCCCCCCC1=C(O)C(=O)C=C(O)C1=O [Embelin] (first compound 2 µM, partner dose 1.2 µM) | 89.2% | 88.6% | 93.9% | 91.8% | 109% | 101% | 106% | 104% | 92.6% | 98.9% | 112% | 85.7% | 70.5% | 104% | 128% | 92.7% | 85.4% | 105% | 102% | 67%
7 | COc1ccc(COc2ccc(Cc3cnc(N)nc3N)cc2OC)cc1 + Oc1nc(-c2ccc(C(F)(F)F)cc2)nc2c1CSCC2 [XAV939] (first compound 1 µM, partner dose 2 µM) | 92.2% | 147% | 92.6% | 89.2% | 99.2% | 97.5% | 99.6% | 104% | 104% | 93.8% | 103% | 90.8% | 89.1% | 91% | 121% | 87.2% | 105% | 83.2% | 102% | 74.7%
8 | O=C(O)C(=O)Nc1sc2c(c1C(=O)O)CCNC2 + O=C1NC(=O)/C(=C/c2ccc(-c3ccc(F)cc3O)o2)S1 [AS252424] (first compound 1.66667 µM, partner dose 1 µM) | 105% | 105% | 96.2% | 100% | 97.9% | 98.3% | 95% | 148% | 104% | 97.3% | 94.4% | 92.4% | 116% | 87.6% | 95.6% | 74.9% | 93% | 85% | 101% | 109%
9 | COc1ccc2c(c1)CCC1C2CCC2(C)C(NCCCCCCN3C(=O)C=CC3=O)CCC12 (stereo not given) + COc1ccc(-c2ccc3c(N4CCOCC4)nc(N4C[C@@H](C)O[C@@H](C)C4)nc3n2)cc1CO [KU0063794] (first compound 0.4 µM, partner dose 0.02 µM) | 101% | 126% | 47.5% | 96.5% | 95.2% | 92.2% | 90.3% | 98.7% | 113% | 90.2% | 93.6% | 66.5% | 101% | 91.7% | 111% | 93.6% | 61.7% | 89.7% | 82.2% | 82.2%
10 | c1cc(-c2cnn3cc(-c4ccc(OCCN5CCCCC5)cc4)cnc23)ccn1 [Dorsomorphin] + COc1cc(N2CCC(N3CCN(C)CC3)CC2)ccc1Nc1ncc(Cl)c(Nc2ccccc2S(=O)(=O)C(C)C)n1 [NVP-TAE684] (first compound 0.4 µM, partner dose 0.08 µM) | 101% | 60.6% | 111% | 80.8% | 99.5% | 109% | 103% | 109% | 91.6% | 103% | 96.3% | 108% | 101% | 100% | 98.4% | 97% | 96.9% | 116% | 105% | 107%
11 | Oc1cc(-c2nc(-c3ccccc3)[nH]c2-c2ccncc2)ccc1Cl + Cc1cc([N+](=O)[O-])ccc1NS(=O)(=O)c1cc(Cl)ccc1Cl [FH535] (first compound 0.2 µM, partner dose 1 µM) | 89.3% | 95.6% | 83% | 77% | 78.8% | 79.5% | 95.3% | 112% | 68.8% | 82.1% | 93.8% | 119% | 79.6% | 63.4% | 90.5% | 96% | 73.7% | 67.7% | 74.8% | 104%
12 | Cn1cc(/C=C2\C(=O)Nc3cccnc32)c2ccccc21 + CC(C)CCN1c2nc(Nc3cc(F)c(O)c(F)c3)ncc2N(C)C(=O)C1C [BID1870] (first compound 0.4 µM, partner dose 0.2 µM) | 96.7% | 84.2% | 106% | 87.3% | 99% | 84% | 88.6% | 127% | 75.8% | 97.9% | 94.2% | 113% | 84.1% | 78.8% | 92.6% | 66.6% | 87.8% | 91.2% | 98.9% | 90.5%
13 | COC(=O)c1sccc1S(=O)(=O)Nc1ccc(Nc2ccccc2)cc1OC + O=C1NC(=O)/C(=C/c2ccc(-c3ccc(F)cc3O)o2)S1 [AS252424] (first compound 1 µM, partner dose 1 µM) | 93.1% | 146% | 105% | 99.9% | 102% | 101% | 92.5% | 118% | 79.5% | 94.7% | 99.5% | 120% | 79.6% | 86.4% | 87.1% | 116% | 104% | 97.2% | 91.9% | 102%
14 | N#Cc1c(O)c2c(-c3ccc(-c4ccccc4O)cc3)csc2[nH]c1=O + Cn1cc(/C=C2\C(=O)Nc3cccnc32)c2ccccc21 [GW441756] (first compound 2 µM, partner dose 0.4 µM) | 108% | 50.6% | 82.8% | 109% | 102% | 96.3% | 106% | 110% | 89% | 97.6% | 101% | 113% | 81.8% | 74.1% | 99.8% | 84.5% | 86.9% | 96% | 97.7% | 119%
15 | COc1cc2ncnc(Nc3ccc(Oc4ccccc4)cc3)c2cc1OC + c1cc(-c2cnn3cc(-c4ccc(OCCN5CCCCC5)cc4)cnc23)ccn1 [Dorsomorphin] (first compound 2 µM, partner dose 0.4 µM) | 88.8% | 127% | 110% | 97.6% | 94.2% | 95.2% | 142% | 117% | 102% | 81.6% | 85.7% | 123% | 108% | 88.8% | 112% | 92.6% | 92.6% | 104% | 105% | 113%
16 | COc1ccc(COc2ccc(Cc3cnc(N)nc3N)cc2OC)cc1 + O=C(O)C(=O)Nc1sc2c(c1C(=O)O)CCNC2 [TCS401] (first compound 1 µM, partner dose 1.66667 µM) | 95.5% | 93.6% | 99.3% | 85.5% | 98.6% | 95.2% | 103% | 97.4% | 146% | 92.9% | 93.2% | 88.1% | 82% | 85.3% | 86.2% | 96.8% | 93.9% | 78.7% | 91.3% | 83.4%
17 | COc1ccc2c(c1)CCC1C2CCC2(C)C(NCCCCCCN3C(=O)C=CC3=O)CCC12 (stereo not given) + O=C1NC(=O)/C(=C/c2ccc(-c3ccc(F)cc3O)o2)S1 [AS252424] (first compound 0.4 µM, partner dose 1 µM) | 92.8% | 99.1% | 103% | 88.4% | 94.8% | 98% | 117% | 84.4% | 109% | 92.4% | 104% | 75.6% | 82% | 94.5% | 65% | 111% | 115% | 80.5% | 85.2% | 92.2%
18 | O=S(=O)(c1ccccc1)N(CC(F)(F)F)c1ccc(C(O)(C(F)(F)F)C(F)(F)F)cc1 + O=C1NC(=O)/C(=C/c2ccc(-c3ccc(F)cc3O)o2)S1 [AS252424] (first compound 1.4 µM, partner dose 1 µM) | 100% | 92.9% | 99.9% | 89.4% | 90.2% | 96% | 105% | 85% | 93.5% | 95.4% | 91.2% | 109% | 41.8% | 77.1% | 111% | 99.7% | 104% | 103% | 84.7% | 85%
